The whole screen tested about 310,000 compounds, of which about 2,200 (0.71%) showed an effect of 50% or more. Effects have a minus sign here. This is one part of the list.
What follows are compounds tested against human ether-à-go-go-related gene (hERG) potassium channel (human, UniProt Q12809) (assay: primary screen, population patch clamp on CHO cells stably expressing hERG).
Chain of human ether-à-go-go-related gene (hERG) potassium channel (Q12809 whole entry, looked up): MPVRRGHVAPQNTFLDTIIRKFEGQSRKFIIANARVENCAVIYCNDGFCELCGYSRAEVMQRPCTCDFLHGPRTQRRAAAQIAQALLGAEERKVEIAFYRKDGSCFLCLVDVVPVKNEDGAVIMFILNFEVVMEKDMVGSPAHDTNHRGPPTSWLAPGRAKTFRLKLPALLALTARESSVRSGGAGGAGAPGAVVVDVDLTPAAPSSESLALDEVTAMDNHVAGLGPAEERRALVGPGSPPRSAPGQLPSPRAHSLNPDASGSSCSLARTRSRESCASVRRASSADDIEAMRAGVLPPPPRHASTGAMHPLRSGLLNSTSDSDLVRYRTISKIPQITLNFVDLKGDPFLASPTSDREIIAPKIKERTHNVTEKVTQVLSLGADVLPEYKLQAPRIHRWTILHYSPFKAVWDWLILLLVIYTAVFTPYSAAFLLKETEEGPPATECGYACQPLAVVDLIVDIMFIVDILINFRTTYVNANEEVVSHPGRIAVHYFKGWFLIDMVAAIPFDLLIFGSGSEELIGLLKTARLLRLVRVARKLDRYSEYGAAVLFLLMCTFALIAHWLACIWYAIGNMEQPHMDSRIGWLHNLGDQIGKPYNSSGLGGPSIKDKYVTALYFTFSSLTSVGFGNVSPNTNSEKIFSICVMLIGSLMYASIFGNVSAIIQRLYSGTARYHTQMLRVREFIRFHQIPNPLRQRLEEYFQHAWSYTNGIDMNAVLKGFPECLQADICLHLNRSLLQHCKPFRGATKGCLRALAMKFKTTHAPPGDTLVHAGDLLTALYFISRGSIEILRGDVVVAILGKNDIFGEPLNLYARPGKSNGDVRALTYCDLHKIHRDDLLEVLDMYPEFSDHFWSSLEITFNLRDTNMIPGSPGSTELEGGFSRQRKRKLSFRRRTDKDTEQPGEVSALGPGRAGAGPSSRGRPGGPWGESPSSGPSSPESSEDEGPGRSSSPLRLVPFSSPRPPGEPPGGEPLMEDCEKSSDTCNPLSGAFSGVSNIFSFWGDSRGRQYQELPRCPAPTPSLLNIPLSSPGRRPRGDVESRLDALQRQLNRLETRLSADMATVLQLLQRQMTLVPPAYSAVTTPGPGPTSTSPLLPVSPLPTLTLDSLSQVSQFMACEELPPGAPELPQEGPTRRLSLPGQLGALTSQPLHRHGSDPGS

Point of comparison: `CN(Cc1ccccc1)S(=O)(=O)c1nnc(NC(=O)c2ccc(F)cc2)s1`, “hERG current change (%, negative = inhibition) at 1uM” value 1.32%. Against it:
- COc1ccc(NC(=O)CSc2nnc(-c3ccccc3)n2N)cc1 — higher, 7.49%
- CCOc1ccccc1NC(=O)C(OC(=O)c1cnccn1)c1ccccc1 (centres unmarked) — higher, 13.9%
- COC(=O)c1c(NC(=O)/C=C/C(=O)O)sc(C)c1-c1ccc(C)cc1 — lower, -0.598%
- O=C(O)/C(=N/NC(=O)c1ccc(Cl)cc1)c1ccccc1 — higher, 7.71%
- Cc1nc2ccccc2c(=O)n1-c1ccc(NS(=O)(=O)c2ccc(F)cc2)cc1 — lower, -6.05%
- O=C(NCc1ccco1)c1nn2c(C(F)(F)F)cc(-c3cccs3)nc2c1Br — higher, 2.62%
- O=C(Cn1ncn2c(cc3sccc32)c1=O)NC1CCCC1 — higher, 10.7%
- COc1ccc(Cn2c(=S)[nH]c3cc(OC)c(OC)cc3c2=O)cc1 — higher, 7.98%
- COc1cccc(NC(=O)N2CCCC2C(=O)Nc2ccc3c(c2)OCCO3)c1 (centres unmarked) — higher, 10.2%
- O=[N+]([O-])c1cc(C2Nc3cccc4cccc(c34)N2)ccc1Cl — higher, 12.7%
- CN1CCCN(C(=O)Cc2c(Cl)cccc2Cl)c2nc3ccccc3nc21 — higher, 14.8%
- COc1ccc(C(=O)NCc2n[nH]c(=S)n2-c2ccccc2)cc1OC — higher, 21.3%
- Cc1csc(NC(=O)CS(=O)(=O)c2ccccc2)n1 — lower, 1.28%
- CCn1c(COc2ccccc2)nnc1SCC(=O)Nc1cc(C)ccc1OC — lower, -8.46%
- O=C(NNC(=O)c1ccccc1Br)c1cccs1 — higher, 12%
- CSc1ccccc1OCc1cc(C(=O)NCCn2nc(C)cc2C)no1 — higher, 8.49%
- CC1CCc2c(sc(NC(=O)Cn3cnc([N+](=O)[O-])n3)c2C(N)=O)C1 (centres unmarked) — higher, 10.2%
- C/C(=N\NC(=O)CN1CCN(S(=O)(=O)c2ccc(C)cc2)CC1)c1ccc(O)cc1 — higher, 9.16%
- O=C(Nc1ccc(N2CCOCC2)cc1)c1cccc2ccccc12 — higher, 14.9%
- O=C1CCC(C(=O)OCc2nnc(-c3ccccc3)o2)=NN1 — higher, 15.1%
- Cc1ccc(C)n1-c1ccc(-c2nnc3n2CCCCC3)s1 — higher, 7.47%
- Cc1ccc(NC(=O)/C(C#N)=C/c2cc(C)n(-c3ccc(N4CCOCC4)c([N+](=O)[O-])c3)c2C)c(C)c1 — lower, -11.2%
- COC(=O)C1=Cc2cc(OC)cc([N+](=O)[O-])c2OC1N1CCOCC1 (centres unmarked) — lower, -0.802%
- O=c1oc(-c2ccccc2F)nc2c1cnn2-c1ccccc1 — higher, 6.5%
- CC1=NN(c2ccccc2)C(=O)/C1=C\c1cn(-c2ccccc2)nc1C — higher, 9.11%
- COCCCn1c(=N)c(C(N)=S)cc2c(=O)n3cccc(C)c3nc21 — lower, -70.3%
- CCOC(=O)c1nn(-c2cccc(C)c2)c2nnc(Cc3ccc(C)cc3)c(=O)n12 — higher, 9.22%
- Cc1ccc(NCC(=O)Nc2cccc(S(=O)(=O)N(C)C)c2)c(Cl)c1 — higher, 6.21%
- O=C(Nc1cccnc1)c1cc(-c2ccc3c(c2)OCO3)on1 — lower, -1.48%
- Cc1ccc(N2C(=O)N(CC(=O)Nc3ccc(C)cc3Cl)C(=O)C2C)cc1 (centres unmarked) — higher, 5.48%
- CC(=O)c1ccc(OCCCC(=O)NC(C)c2ccc(S(N)(=O)=O)cc2)cc1 (centres unmarked) — higher, 12.7%
- OCCOCCn1c(C2CCCN2c2nc(-c3ccc(F)cc3)cs2)nc2cc(C(F)(F)F)ccc21 (centres unmarked) — lower, -73.2%
- CCc1ccc2oc(=O)cc(CN3CCOCC3)c2c1 — lower, -3.89%
- COc1ccccc1OCCNC(=O)c1cccc(S(=O)(=O)N2CCN(Cc3ccccc3)CC2)c1 — lower, -6.1%
- COc1ccc(-c2nn(-c3ccccc3)cc2N)cc1 — higher, 3.81%
- Cc1noc(C)c1CSCC(=O)N(C)CC(=O)Nc1ccc(Cl)c(Cl)c1 — higher, 12.9%
- C=CCNC(=S)N/N=C/c1ccc(C)s1 — higher, 9.18%
- O=C(NCCCNC(=O)c1cc(Cl)ccc1Cl)c1ccccn1 — lower, -0.609%
- O=C(NC(Cc1c[nH]c2ccccc12)C(=O)Nc1ccc(F)c([N+](=O)[O-])c1)c1cccs1 (centres unmarked) — higher, 14%
- Cn1c(CC(=O)Nc2ccccc2)c(Sc2ccccc2)c2ccccc21 — higher, 15.1%
- COC(=O)c1ccc(CN2CCC(Oc3cccc(C(=O)N4CCCC4)c3)CC2)cc1 — lower, -22%
- COc1ccc(S(=O)(=O)N(C)c2ccc(C(=O)NC3CCCC3)cc2)cc1 — higher, 10.4%
- Cc1ccc(-c2cn3c(n2)SCC3)cc1 — higher, 5.9%

From paper PMC4336329 (PLoS ONE, 2015)
